Data on 22 compounds can be found in PMC4336329 (PLoS ONE, 2015).

Molecules are shown by their SMILES. In all, about 310,000 compounds went through this assay and about 2,200 (0.71%) showed an effect of 50% or more. Effects have a minus sign here. Some of the results follow.

Sequence of human ether-à-go-go-related gene (hERG) potassium channel (Q12809 whole entry, looked up): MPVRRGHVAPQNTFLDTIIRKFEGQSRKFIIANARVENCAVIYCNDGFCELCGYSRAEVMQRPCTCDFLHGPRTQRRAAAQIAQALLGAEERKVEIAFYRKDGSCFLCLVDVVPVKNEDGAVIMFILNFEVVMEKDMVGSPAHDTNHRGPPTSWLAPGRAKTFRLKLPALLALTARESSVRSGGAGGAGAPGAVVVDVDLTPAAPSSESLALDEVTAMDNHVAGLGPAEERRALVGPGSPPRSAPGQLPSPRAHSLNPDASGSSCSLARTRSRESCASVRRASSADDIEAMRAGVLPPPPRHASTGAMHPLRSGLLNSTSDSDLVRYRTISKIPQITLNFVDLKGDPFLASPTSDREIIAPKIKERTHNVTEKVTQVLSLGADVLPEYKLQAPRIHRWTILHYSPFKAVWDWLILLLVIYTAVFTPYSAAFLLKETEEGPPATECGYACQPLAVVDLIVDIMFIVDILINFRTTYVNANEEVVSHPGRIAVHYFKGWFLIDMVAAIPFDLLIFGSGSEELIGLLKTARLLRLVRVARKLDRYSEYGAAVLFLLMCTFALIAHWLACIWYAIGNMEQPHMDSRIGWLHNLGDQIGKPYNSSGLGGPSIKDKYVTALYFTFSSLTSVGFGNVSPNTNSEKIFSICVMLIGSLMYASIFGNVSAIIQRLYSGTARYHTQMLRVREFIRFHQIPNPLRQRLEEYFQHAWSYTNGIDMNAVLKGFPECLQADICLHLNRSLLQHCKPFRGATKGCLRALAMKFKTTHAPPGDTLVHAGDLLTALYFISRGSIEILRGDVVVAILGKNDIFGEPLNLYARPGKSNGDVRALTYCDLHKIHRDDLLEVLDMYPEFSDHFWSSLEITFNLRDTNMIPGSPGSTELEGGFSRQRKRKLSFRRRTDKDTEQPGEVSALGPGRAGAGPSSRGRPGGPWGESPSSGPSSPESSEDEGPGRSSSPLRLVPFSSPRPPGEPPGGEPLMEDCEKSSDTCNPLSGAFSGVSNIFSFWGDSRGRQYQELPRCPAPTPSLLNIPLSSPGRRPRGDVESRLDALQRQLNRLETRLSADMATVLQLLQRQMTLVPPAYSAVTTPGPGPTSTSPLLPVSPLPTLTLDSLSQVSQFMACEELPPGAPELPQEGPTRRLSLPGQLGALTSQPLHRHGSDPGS

The test has as its target human ether-à-go-go-related gene (hERG) potassium channel (human, UniProt Q12809). The test is described as follows: primary screen, population patch clamp on CHO cells stably expressing hERG.
Turning to `Cc1ccc(-c2cc(-c3ccco3)c3c(N)c(C(=O)NN)oc3n2)cc1`, the “hERG current change (%, negative = inhibition) at 1uM” value stood at 11.4%.

Take `COc1cc(OC)c(OC)cc1CNC(=O)c1cc(S(=O)(=O)N2CCOCC2)ccc1F`: the “hERG current change (%, negative = inhibition) at 1uM” value is listed as -1.57%.

Consider `COC(=O)CCC(NC(=O)c1cc(-c2ccc3c(c2)OCCO3)oc1C)C(=O)OC` (stereo not shown), for which the “hERG current change (%, negative = inhibition) at 1uM” value came out at 7.54%.

`CCCCn1c(N)c(N(CCOC)C(=O)CSCc2ccccc2C)c(=O)[nH]c1=O`: the “hERG current change (%, negative = inhibition) at 1uM” value is -5.21%.

With `Cc1nn(Cc2ccccc2)c(Cl)c1C(=O)NCc1ccc(C)n1C`, the “hERG current change (%, negative = inhibition) at 1uM” value was -7.78%.

Turning to `O=C(Nc1ccc(N2CCOCC2)cc1)C1CC(=O)N(c2ccccc2)C1` (stereo not shown), the “hERG current change (%, negative = inhibition) at 1uM” value is -7.38%.

As to `COc1cc(CNC(=O)c2ccccc2NC(=O)C2=C(C)OCCS2)cc(OC)c1OC`, the “hERG current change (%, negative = inhibition) at 1uM” value is 15.8%.

Consider `O=C(O)CCCC(=O)N1CC(=O)Nc2ccccc21`, for which the “hERG current change (%, negative = inhibition) at 1uM” value turned out to be 10.5%.

On to `COc1ccc(C2=NOC(C(=O)NCc3ccco3)C2)cc1OC` (stereo not shown), for which the “hERG current change (%, negative = inhibition) at 1uM” value was -5.49%.

In the case of `COc1ccc(-n2nc(C(=O)NCC(=O)NCc3cccc(F)c3)c3ccccc3c2=O)cc1Cl`, the “hERG current change (%, negative = inhibition) at 1uM” value is on record as 9.88%.

Regarding `COCc1cc(CN2CCCC(C(=O)Nc3cccc(-n4cnnn4)c3)C2)ccc1OC` (stereo not shown), the “hERG current change (%, negative = inhibition) at 1uM” value was 8.23%.

With `Cc1nn(-c2ccccc2)c(C)c1/C=N/NC(=O)CSc1nnc(-c2ccccc2)n1-c1ccc(Cl)cc1`, the “hERG current change (%, negative = inhibition) at 1uM” value is given as 13.5%.

In the case of `COc1ccc(C(=O)OCCCc2cc3ccccc3c(=O)o2)cc1`, the “hERG current change (%, negative = inhibition) at 1uM” value came out at 4.19%.

As to `Cc1cccc(NC(=O)c2ccccc2NC(=O)C(C)(C)C)n1`, the “hERG current change (%, negative = inhibition) at 1uM” value turned out to be 9.48%.

Take `O=C(Oc1ccccc1)N1CCN(c2ccc(F)cc2)CC1`: the “hERG current change (%, negative = inhibition) at 1uM” value was 0.535%.

As for `Nc1nc(-c2ccc(Br)cc2)c(S(=O)(=O)c2ccccc2)s1`, the “hERG current change (%, negative = inhibition) at 1uM” value is recorded as 4.37%.

As for `CCOc1ccccc1C(=O)Oc1cc(C)[nH]c(=O)c1[N+](=O)[O-]`, the “hERG current change (%, negative = inhibition) at 1uM” value was found to be 10.6%.

`COc1ccc(-c2c([C@H]3[C@H]4C=CC[C@@H](C)[C@@H]4C(=O)N3Cc3ccccc3)ccc3ccccc23)cc1OC`: the “hERG current change (%, negative = inhibition) at 1uM” value stood at 12%.

Regarding `COc1cccc(-n2sc3c(c2=S)-c2cc(OC)ccc2NC3(C)C)c1`, the “hERG current change (%, negative = inhibition) at 1uM” value is given as 8.2%.

For the compound `COc1ccc(CNC(=O)c2ccc(CS(=O)Cc3ccc(Cl)cc3)o2)cc1` (stereo not shown), the “hERG current change (%, negative = inhibition) at 1uM” value is listed as -11.4%.

As to `Cc1ccc(C)c(C(=O)COC(=O)c2cccc(N3C(=O)c4c(C)nc5ccccc5c4C3=O)c2)c1`, the “hERG current change (%, negative = inhibition) at 1uM” value is reported as 27.9%.

`Fc1ccc(N2CCN(Cc3cnc(Cl)s3)CC2)cc1`: the “hERG current change (%, negative = inhibition) at 1uM” value is 9.97%.
